# This is one part of the list. These are noisy estimates, calculated here from bound and input reads.
# Target: T1, Pho4 (S. cerevisiae) (UniProt P07270)
# T1 sequence: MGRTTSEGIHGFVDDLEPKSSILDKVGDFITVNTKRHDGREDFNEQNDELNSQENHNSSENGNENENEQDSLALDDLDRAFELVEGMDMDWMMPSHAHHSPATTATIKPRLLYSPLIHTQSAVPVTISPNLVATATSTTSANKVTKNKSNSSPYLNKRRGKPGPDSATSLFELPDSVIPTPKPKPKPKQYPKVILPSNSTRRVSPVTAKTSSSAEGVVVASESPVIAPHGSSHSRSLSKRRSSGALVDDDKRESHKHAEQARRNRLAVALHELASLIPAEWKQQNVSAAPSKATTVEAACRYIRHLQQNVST
# Assay: relative binding free energy (BET-seq); higher = weaker binding
# Conditions: reference: library average
row,Sequence,relative binding free energy [kcal/mol]
1,AGAGGCACGTGAGATT,0.17
2,TGAAGCACGTGATTTG,0.01
3,TTTGACACGTGCGGTA,-0.17
4,AGGTCCACGTGAGTTT,0.26
5,CGGAGCACGTGTGCGG,-0.23
6,AGGTGCACGTGGGAGT,-0.2
7,TATGGCACGTGGCCGG,-0.21
8,AGTGGCACGTGGACTG,-0.16
9,TCAGACACGTGTATGT,0.07
10,CTATTCACGTGTGGTA,0.26
11,TATGGCACGTGAAAAG,-0.02
12,GGTGACACGTGGGACT,-0.1
13,TATTGCACGTGATAAT,0.07
14,TGTAACACGTGAGTGA,0.15
15,TTTAGCACGTGAAGCT,0.08
16,GTCTTCACGTGCTAGG,0.38
17,TGGTGCACGTGACAGG,0.07
18,CTTGGCACGTGGCTTG,-0.26
19,TGAATCACGTGGCGGT,0.05
20,GAGTGCACGTGTTGAA,0.17
21,GGATACACGTGGGTTA,-0.01
22,TGGATCACGTGTTAAA,0.13
23,TGAGCCACGTGGGGAG,-0.03

row,Sequence,relative binding free energy [kcal/mol]
1,AGGCACACGTGGTGGA,-0.02
2,AGGATCACGTGCCGGG,0.15
3,CTGATCACGTGGTTTT,0.15
4,TCCGTCACGTGTTAGG,0.19
5,ACGGGCACGTGGGTAT,-0.24
6,TCGGTCACGTGGGGTC,0.07
7,GGCGTCACGTGCGGGG,0.01
8,TTGCACACGTGAGTTG,0.24
9,AGCCACACGTGGGTGG,0.02
10,TGGGTCACGTGGCAGG,0.01
11,TGTGACACGTGCCGTT,-0.04
12,TATACCACGTGGTTGG,-0.21
13,GATTGCACGTGTTCGT,0.15
14,GATAACACGTGGAGTT,0.07
15,TGAGTCACGTGAATAT,0.22
16,GTTTCCACGTGTTGTA,0.07
17,TTGGGCACGTGGGCAA,-0.17
18,GTTGTCACGTGTATCT,0.15
19,CTTTTCACGTGGTATT,0.25
20,TGATTCACGTGATATT,0.35
21,CGCGTCACGTGGGCGG,-0.09
22,GTATTCACGTGATTAG,0.29
23,ACGTTCACGTGCTGTT,0.19

row,Sequence,relative binding free energy [kcal/mol]
1,GTGTACACGTGTTGGG,0.11
2,TGGTTCACGTGTAAAT,0.49
3,AGCGGCACGTGGAGCG,-0.16
4,TCTGGCACGTGGTATT,-0.13
5,ATGGGCACGTGGCGCA,-0.3
6,TGGAGCACGTGGGTGG,-0.18
7,TGATTCACGTGGGAGT,0.3
8,TTTAACACGTGAGTTT,0.32
9,GGGCTCACGTGTTGAT,0.23
10,TTTCACACGTGGGGGG,0.14
11,ATGTGCACGTGGAGAG,-0.09
12,CTGGTCACGTGTGGTT,0.17
13,CGGTGCACGTGCGGAG,-0.16
14,TATTTCACGTGTGCGT,0.43
15,TGGCTCACGTGATTGC,0.39
16,TGTCGCACGTGATAGG,0.15
17,AGGTTCACGTGTTAGA,0.32
18,TAGGACACGTGGATTG,-0.09
19,ATTATCACGTGGCGTA,0.2
20,TTAGGCACGTGAATTA,0.17
21,GCATTCACGTGGGTGC,0.14
22,GTGGACACGTGGGCAG,-0.14
23,GTTAGCACGTGGCTCG,-0.06

row,Sequence,relative binding free energy [kcal/mol]
1,CGTAACACGTGTTGAT,0.02
2,GGTTTCACGTGGCGCG,0.32
3,TCTTTCACGTGGCGGG,0.3
4,TTTGGCACGTGACTTT,0.02
5,TTTCGCACGTGGGAAG,-0.02
6,TGGCACACGTGTGTAG,-0.03
7,TTGAGCACGTGGCTGG,-0.08
8,TTAGTCACGTGTCTGT,-0.02
9,GGTATCACGTGGTGTT,0.17
10,GTATGCACGTGTGAGC,0.12
11,GGCAGCACGTGACGGG,0.07
12,TTGATCACGTGTAGAT,0.24
13,AAAAGCACGTGAGTTT,0.16
14,TTGTACACGTGGTTGC,-0.14
15,GTAGGCACGTGGGGAT,-0.13
16,AGGTCCACGTGATTTG,0.2
17,ATTTTCACGTGCGAAG,0.24
18,TTGACCACGTGACGGG,0.23
19,GTGTACACGTGATCGG,0.23
20,GGGGTCACGTGTCAGA,0.21
21,TGTCACACGTGAAGGT,0.27
22,GAGAGCACGTGGGTAT,-0.18
23,GTATACACGTGCGGTA,0.1

row,Sequence,relative binding free energy [kcal/mol]
1,TACATCACGTGTAGGA,0.27
2,TGTCACACGTGGTTGG,0.01
3,GTCTGCACGTGTGGTA,0.1
4,TATTGCACGTGCTGTG,-0.1
5,ACAGGCACGTGGGGGC,-0.31
6,ACAAGCACGTGGAGGG,-0.15
7,GTCTGCACGTGTAAAT,0.2
8,GTTGGCACGTGGGTTT,-0.15
9,TTGGTCACGTGTAGCC,0.09
10,GTTTTCACGTGTAAAT,0.36
11,TTGATCACGTGAAATT,0.29
12,TGTGCCACGTGGTTAG,-0.15
13,GATGTCACGTGTAGCG,0.2
14,GCGGACACGTGGTTGT,0.09
15,GCATTCACGTGATGGT,0.35
16,CTATGCACGTGGGCGT,-0.22
17,TATAGCACGTGCGAGT,-0.11
18,TGGGGCACGTGGTCTA,-0.13
19,GGGATCACGTGCGTGA,0.02
20,GTTGTCACGTGGGCCG,0.02
21,GTTGGCACGTGGATTG,-0.01
22,GGTTGCACGTGATACG,0.16
23,ATTATCACGTGGACTT,0.24
